Test results published in PubChem BioAssay AID1468 (National Center for Advancing Translational Sciences (NCATS), 2008).
About 1,100 (0.39%) of roughly 280,000 compounds were called active. The inconclusive results got no clear call from the source; some entries with a clear call stand among them for comparison. Calls follow the shape of the dose curve; as a rule, active = well fitted inhibition curve with a large enough effect; inconclusive = small, poorly fitted or top-dose-only effect, or effect the other way; inactive = flat fitted curve, though single readings scatter. No potency is given beside an inconclusive call; the fits are too rough.

These compounds were tested against Microtubule-associated protein tau (Homo sapiens) (UniProt P10636) (assay: qHTS for Inhibitors of Tau Fibril Formation, Fluorescence Polarization). Settings: K18 P301L tau heparin fibrillization, Alexa594 FP, 6 h; series mostly up to 57.7 µM.
In short: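 K18 P301L tau (15 uM unlabeled/0.24 uM Alexa 594-labeled, final) + compound + heparin 20 uM final; 100 mM NaOAc pH 7; 6 hr 37 C; ThT 30 uM final added, 1 hr RT; FP ex 555/em 632 nm.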
% is scaled to controls: 0 for no effect and ±100 for the full control effect; potency is read from the fitted curve at half-maximal effect; tags tell the direction and shape of the fitted curve.
Also: nearly all actives have a fitted effect of over 55% in size.

Sequence of UniProt P10636 (P10636 whole entry, looked up): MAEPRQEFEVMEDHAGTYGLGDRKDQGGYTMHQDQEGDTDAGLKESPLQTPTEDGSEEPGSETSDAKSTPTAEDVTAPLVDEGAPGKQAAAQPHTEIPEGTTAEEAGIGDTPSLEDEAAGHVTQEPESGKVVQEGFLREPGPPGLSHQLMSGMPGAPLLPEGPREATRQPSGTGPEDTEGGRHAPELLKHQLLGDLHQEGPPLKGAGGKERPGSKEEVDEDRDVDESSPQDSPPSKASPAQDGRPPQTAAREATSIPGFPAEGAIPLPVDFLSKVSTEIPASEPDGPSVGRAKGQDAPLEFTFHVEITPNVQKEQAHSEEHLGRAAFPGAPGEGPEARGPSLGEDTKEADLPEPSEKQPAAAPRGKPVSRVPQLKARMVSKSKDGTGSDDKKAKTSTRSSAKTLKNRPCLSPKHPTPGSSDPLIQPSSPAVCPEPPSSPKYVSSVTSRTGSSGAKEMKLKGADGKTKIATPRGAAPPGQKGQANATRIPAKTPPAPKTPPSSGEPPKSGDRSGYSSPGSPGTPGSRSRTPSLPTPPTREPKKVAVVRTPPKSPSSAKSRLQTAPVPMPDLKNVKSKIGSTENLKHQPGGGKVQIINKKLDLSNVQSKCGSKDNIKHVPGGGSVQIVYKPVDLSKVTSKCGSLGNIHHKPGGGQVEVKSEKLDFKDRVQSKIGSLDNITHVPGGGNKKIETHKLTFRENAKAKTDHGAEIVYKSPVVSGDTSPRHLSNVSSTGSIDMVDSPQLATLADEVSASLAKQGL

Row | SMILES | Potency | activity, negative = inhibition
1 | Cc1ccc2nc(NCCc3ccc(Cl)cc3)c3nncn3c2c1 | inconclusive [inhibitor, full curve] | –
2 | CCOc1ccc2nc(SC3CC(=O)N(c4cccc(OC)c4)C3=O)sc2c1 (stereo not drawn) | inactive | –
3 | CCOc1ccccc1NC(=O)CSc1nnc(-c2ccccn2)n1Cc1ccco1 | inconclusive [inhibitor, single point] | –
4 | CC1=NN(c2ccc(C(=O)OC(C)C)cc2)C(=O)/C1=C\C=C\c1ccco1 | inactive | –
5 | Nc1cc(C(F)(F)F)ccc1Nc1ccccc1 | inconclusive [activator, single point] | –
6 | O=C(NCc1ccc(Cl)cc1)c1ccc(N2CCCC2=O)cc1 | inconclusive [inhibitor, partial curve] | –
7 | CC(=O)c1sc2nc(-c3cccs3)cc(C(F)(F)F)c2c1N | inconclusive [inhibitor, single point] | –
8 | FC(F)(F)c1cccc(NC(=S)NCc2ccccc2)c1 | inconclusive [inhibitor, single point] | –
9 | COc1ccc(N2CCN(C(c3cc(OC)ccc3OC)c3nnnn3Cc3ccco3)CC2)cc1 (stereo not drawn) | inconclusive [activator, full curve, poor fit] | –
10 | COc1ccc(-c2csc(N3C(=O)C4C5c6ccccc6C(c6ccccc65)C4C3=O)n2)cc1 (stereo not drawn) | inconclusive [inhibitor, partial curve, poor fit] | –
11 | O=C(NCc1csc2ccccc12)Nc1cc(Cl)cc(Cl)c1 | inconclusive [inhibitor, partial curve] | –
12 | Cc1nc(N2CCOCC2)c2c(C)c(C(=O)Nc3ccc(F)cc3F)sc2n1 | inconclusive [inhibitor, single point] | –
13 | COc1cc(NS(=O)(=O)c2ccc(NC(=O)c3ccco3)cc2)nc(OC)n1 | inactive | –
14 | C/C(=N/NC(=O)c1ccc(Cl)s1)c1ccc(NC(=O)COc2ccc(Cl)cc2)cc1 | inconclusive [inhibitor, full curve, poor fit] | –
15 | CC(=O)c1cc(-c2ccccc2)[nH]c1N1CCOCC1 | inconclusive [inhibitor, partial curve] | –
16 | CCCCC(=O)Nc1cccc(-c2nc3ccccc3s2)c1 | inconclusive [inhibitor, partial curve] | –
17 | CC(C)Oc1ccc(CNC(=O)c2cnc3sc(N4CCCCCC4)nn3c2=O)cc1 | inactive | –
18 | COc1ccnc(CSC(N)=Nc2ccccc2OC)c1 | inconclusive [inhibitor, partial curve, poor fit] | –
19 | Cc1ccccc1NS(=O)(=O)c1ccc(NC(=O)CSCc2ccc(Br)cc2)cc1 | inconclusive [inhibitor, partial curve] | –
20 | CCCNC(=O)c1ccccc1NC(=O)c1ccc(CSc2ccccc2)cc1 | inconclusive [inhibitor, partial curve] | –
21 | Cc1ccc(S(=O)(=O)/N=C(/c2ccc(F)cc2)N2CCCCC2)cc1 | inactive | –
22 | Clc1nc(Nc2ccccc2)nc(Nc2ccccc2)n1 | inconclusive [inhibitor, single point] | –
23 | O=C(Nc1ccccc1Cl)c1ccccc1 | inactive | –

Row | SMILES | Potency | activity, negative = inhibition
24 | COc1cc(NC(=O)CSCC(=O)Nc2cccc(C(F)(F)F)c2)c(Cl)cc1Cl | inconclusive [inhibitor, partial curve] | –
25 | O=C(NC1=NCCS1)c1ccc(Cl)c(S(=O)(=O)N2CCc3ccccc32)c1 | inconclusive [inhibitor, partial curve] | –
26 | O=C(Nc1ccccc1N1CCCCC1)c1ccc(-c2ccc(Cl)cc2)o1 | inactive | –
27 | COc1ccc(OCc2nc3ccc(S(=O)(=O)Nc4ccccc4Cl)cc3[nH]2)cc1 | inconclusive [inhibitor, partial curve] | –
28 | COc1cc(/C=C2\SC(=S)N(C(C(=O)O)c3ccccc3)C2=O)ccc1O (stereo not drawn) | inactive | –
29 | CCS(=O)(=O)c1ccc(OC)c(N=Nc2ccc(O)c3ncccc23)c1 | inconclusive [activator, partial curve] | –
30 | CC(=O)Nc1ccc(S(=O)(=O)NCc2cccn2Cc2cccc(C)c2)cc1 | inconclusive [inhibitor, partial curve, poor fit] | –
31 | O=C(N/C=N/OCc1cccc(C(F)(F)F)c1)N1OC[C@@H]2COc3ccc4ccccc4c3[C@@H]21 | inconclusive [inhibitor, single point] | –
32 | Cc1cc(C)nc(N/N=C/C=C/c2ccccc2)n1 | inactive | –
33 | Cc1ccc2[nH]c(-c3ccccc3)cc(=O)c2c1 | inconclusive [inhibitor, full curve, poor fit] | –
34 | COc1ccc(CNc2oc(/C=C/c3cccc(OC)c3)nc2C#N)cc1 | inconclusive [activator, partial curve] | –
35 | c1ccc(N2CCOCCOCCOCCOCC2)cc1 | inactive | –
36 | O=C(CNc1cccc2ccccc12)c1ccc([N+](=O)[O-])cc1 | inconclusive [inhibitor, partial curve] | –
37 | COc1ccccc1-c1cc(=O)c2cccc(OC)c2o1 | inactive | –
38 | Cc1ccc(C(=O)CC2C(=O)N(c3ccccc3)C(=S)N2c2ccccc2)cc1 (stereo not drawn) | inconclusive [inhibitor, single point] | –
39 | CCc1nnc(SCC(=O)Nc2ccccc2)nc1CC | inconclusive [inhibitor, single point] | –
40 | CCN(CC)S(=O)(=O)c1ccc(C(=O)NCC(c2ccc(OC)cc2)N2CCOCC2)cc1 (stereo not drawn) | inactive | –
41 | COC(=O)[C@@]1(Cc2ccc(F)cc2)[C@H]2c3cc(C(=O)N4CCCC4)n(Cc4ccc(OC(F)(F)F)cc4)c3C[C@H]2CN1C(=O)c1ccccc1 | inconclusive [activator, partial curve] | –
42 | Cc1csc2ncnc(N3CCN(C(=S)Nc4ccc(C(F)(F)F)cc4)CC3)c12 | inconclusive [inhibitor, single point] | –
43 | COc1ccc(N2CCn3c2nc2c3c(=O)n(CCCc3ccccc3)c(=O)n2C)c(OC)c1 | inactive | –
44 | NC(=O)c1ccsc1NC(=O)COC(=O)c1ccccc1NCc1ccco1 | inconclusive [inhibitor, partial curve] | –
45 | CCCOc1c(Br)cc(C2C3=C(CCCC3=O)N(C)C3=C2C(=O)CCC3)cc1OC | inactive | –
46 | CN(C)c1ccc(NC(=O)CN2CCN(CC(=O)Nc3ccc(F)cc3)CC2)cc1 | inactive | –

Row | SMILES | Potency | activity, negative = inhibition
47 | O=C(O)Cc1ccc(O)c(O)c1 | inconclusive [inhibitor, single point] | –
48 | CCN(CC)CCCNC(=O)CSc1nc2nc(C)c(Cc3c(F)cccc3Cl)c(C)n2n1 | inactive | –
49 | Cc1ccc(CSc2nnc(-n3c(=O)c(C#N)cc4c(=O)n5cc(C)ccc5nc43)s2)cc1 | inactive | –
50 | CC(C)NC(=O)C(c1ccccc1)N1Cc2ccccc2C1=O (stereo not drawn) | inactive | –
51 | COc1ccc(-c2cc(C)nc3c(-c4ccccc4)cnn23)cc1 | inconclusive [inhibitor, partial curve] | –
52 | Cc1c(C#N)c(=O)oc2ccc3ccccc3c12 | inconclusive [inhibitor, full curve, poor fit] | –
53 | O=C1C=C(O)CC(c2ccco2)C1 (stereo not drawn) | inconclusive [inhibitor, full curve, poor fit] | –
54 | O=C1CN(S(=O)(=O)c2ccccc2)c2ccccc2N1 | inconclusive [inhibitor, single point] | –
55 | COc1ccccc1NC(=O)c1oc2ccccc2c1NC(=O)COc1ccccc1OC | inconclusive [inhibitor, full curve] | –
56 | Cc1ccc(-c2nnc(Nc3cccc(O)c3)c3ccccc23)cc1S(=O)(=O)N1CCCCC1 | inconclusive [inhibitor, single point] | –
57 | COc1ccc(CNC(=O)c2sc(=S)n(-c3ccccc3)c2N)cc1 | – | inactive: 3.68% [at 0.0958 µM]
58 | Cc1ccc(-c2csc(NC(=O)c3cc([N+](=O)[O-])ccc3N3CCOCC3)n2)cc1 | inactive | –
59 | Cc1cc(C)c(S(=O)(=O)N(C)CC(=O)NCc2ccccn2)c(C)c1 | inconclusive [inhibitor, single point] | –
60 | O=C(COc1cccc(Br)c1)N/N=C/C(=O)c1ccccc1 | inconclusive [inhibitor, single point] | –
61 | CCOc1ccc(NC(=O)Cn2c(=O)c(CNc3ccccc3)cc3cc4c(cc32)OCCO4)cc1 | inconclusive [activator, partial curve, poor fit] | –
62 | Cc1ccn2c(-c3csc(NCc4ccco4)n3)c(C)nc2c1 | inconclusive [inhibitor, single point] | –
63 | COc1ccc(Cl)cc1C(=O)Nc1c2c(nn1-c1ccc(Cl)cc1)CS(=O)(=O)C2 | inconclusive [inhibitor, partial curve] | –
64 | CCCCCn1c(-c2cccc(C)c2)nc2ccccc21 | inactive | –
65 | O=C(OCc1nc2scc(-c3ccccc3)c2c(=O)[nH]1)c1cc(Cl)ccc1[N+](=O)[O-] | inconclusive [activator, partial curve, poor fit] | –
66 | Cc1ccc(CCNC(=O)c2cccc(Nc3nc4ccccc4nc3-n3nc(C)cc3C)c2)cc1 | inconclusive [inhibitor, partial curve] | –
67 | O=C(N/N=C\c1ccccc1)c1sccc1-n1cccc1 | inconclusive [inhibitor, single point] | –
68 | CCOC(=O)c1ccc(NC(=O)CCc2c(C)nc3c(c(C)nn3C(C)(C)C)c2C)cc1 | inconclusive [inhibitor, partial curve] | –
